Laboratory results from PubChem BioAssay AID1465 (SRMLSC, 2008).
Out of some 220,000 compounds screened, about 160 (0.073%) were called active. Inconclusive means that the source gave no clear call. Such entries were picked first, then a sample of the others.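 The calls were made as follows: active = fold induction of absorbance versus untreated yeast above a set limit, then at least 30% activation at any dose in follow-up; inconclusive = repeats straddling the limit, or above it without dose testing; inactive = fold induction below the set limit.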

Assay: enhancers of respiration in Yfh1-depleted yeast, dose response, Friedreich's ataxia, plus single-dose screen (AID 1465)
Conditions: S. cerevisiae Yfh1-off respiration, WST-1 reduction, 72 h; at 50 µM; hits give high values

Row | SMILES | fold induction
1 | O=[N+]([O-])c1cc(-c2ncccn2)c([N+](=O)[O-])s1 | inconclusive: 1.42
2 | Cc1nn(C)c(C)c1/C=N/O | inconclusive: 1.36
3 | CCN(CC)c1ccc2cc(C(C)=O)c(=O)oc2c1 | inconclusive: 1.46
4 | Cn1cc(/C=C2\SC(=S)N(NC(=O)c3ccccc3Cl)C2=O)c2ccccc21 | inconclusive: 1.69
5 | CN(C(=O)COC(=O)c1ccc(Cl)cc1N)C1CCCCC1 | inactive: 1.06
6 | COc1ccc(-c2cc(C(=O)Nc3c(C)nn(Cc4ccccc4Cl)c3C)no2)cc1OC | inconclusive: 1.57
7 | COc1ccc(/C=N/NC(=O)c2cc(-c3ccccc3OC)nc3ccccc23)cc1COC(C)=O | inconclusive: 1.11
8 | O=C1CC(Nc2ccc(N3CCOCC3)cc2)C(=O)N1c1ccccc1F (stereo unspecified) | inconclusive: 1.45
9 | CCn1cc([N+](=O)[O-])c(C(=O)N2N=C(c3ccc4ccccc4c3)CC2c2ccccc2O)n1 (stereo unspecified) | inconclusive: 1.17
10 | Cc1nnc(N/N=C/c2cc(C)n(-c3ccc(F)cc3)c2C)n1N | inconclusive: 1.34
11 | O=C1C2CCCN2C(c2ccc(Br)cc2)N1c1ccc(F)cc1 (stereo unspecified) | inactive: 0.86
12 | O=C(O)c1cccc(Nc2cc(Cl)c3nonc3c2[N+](=O)[O-])c1 | inconclusive: 1.33
13 | COC(=O)C1=C(C)N=C2SC(C#N)=C(N)N2C1c1ccc(OCc2ccccc2)cc1 (stereo unspecified) | inconclusive: 1.29
14 | CN(C)c1ccc(N=Nc2cccc3ccoc23)cc1 | inconclusive: 1.36
15 | Cc1cc(C(=O)C(=O)N(C)C)c(C)n1-c1ccc(Cl)cc1 | inconclusive: 1.35
16 | COc1ccc(OC)c(-c2c3cc(O)c(=O)cc-3oc3cc(O)c(O)cc23)c1 | inconclusive: 1.64
17 | O=Nc1c(-c2ccccc2)cc2ccccn12 | inconclusive: 1.34
18 | COc1cc(C(=O)Nc2nnc(-c3sccc3C)s2)cc(OC)c1OC | inconclusive: 1.13
19 | O=C(NCc1ccco1)c1cc2cc3ccc(Cl)cc3nc2o1 | inconclusive: 1.07
20 | COc1cccc(CNc2ncnc3cc(OC)c(OC)cc23)c1 | inconclusive: 1.34
21 | CCOC(=O)C1=C(Cc2ccc(C)cc2)C(=O)c2ccccc2C1=O | inactive: 1.29
22 | CCC(C)C(NC(=O)c1ccccc1NC(=O)c1ccco1)C(=O)NC1CCCCC1 (stereo unspecified) | inconclusive: 1.22
23 | O=C(NNC1=C(C(=O)C(F)(F)F)CCC1)c1ccc(Cl)cc1 | inactive: 1.11

Row | SMILES | fold induction
24 | O=C(CSc1ccc(-c2nc3ccccc3[nH]2)cn1)Nc1ccc(S(=O)(=O)N2CCCC2)cc1 | inconclusive: 1.34
25 | O=c1c2ccccc2c(C=Nc2cccc(S(=O)(=O)NCc3ccco3)c2)c(O)n1-c1ccc(Cl)cn1 | inconclusive: 1.34
26 | CCCCCCCCCOC(=O)C[n+]1csc(CCO)c1C | inconclusive: 1.17
27 | CC(=O)N(C1=C(Cl)C(=O)c2ccccc2C1=O)C1CCCCC1 | inconclusive: 1.39
28 | COc1ccc(C2=CC(=O)C=CC2=O)cc1 | inconclusive: 1.38
29 | Cc1ccc(C(=O)N/C(=C\c2ccc(Br)cc2)c2nc(=S)[nH][nH]2)cc1 | inconclusive: 1.4
30 | CN(C)c1ccc(/C=c2\sc3n(c2=O)CCCN=3)cc1 | inconclusive: 1.33
31 | O=C(NNC1=C(C(=O)C(F)(F)F)CCC1)c1ccncc1 | inactive: 1.05
32 | O=C(O)CN1C(=O)/C(=C/c2ccc(SCc3ccccc3)o2)SC1=S | inconclusive: 1.49
33 | O=C(NCC(c1ccco1)N1CCCCC1)c1ccc2c(c1)S(=O)(=O)c1ccccc1C2=O (stereo unspecified) | inactive: 0.99
34 | O=c1oc2ccccc2cc1C1=Nn2c(nnc2-c2cccnc2)SC1 | inactive: 1.06
35 | Cn1c(NN)nc2sc3c(c2c1=O)CCC3 | inconclusive: 1.32
36 | COc1ccc(NC(=S)NNc2ccc([N+](=O)[O-])cc2S(=O)(=O)Nc2ccc(C)cc2C)cc1 | inactive: 1.25
37 | Cc1ccc(CCCOC(=O)C[N+]2(C)CCOCC2)cc1 | inactive: 1.14
38 | CCOC(=O)/C(C#N)=N/Nc1c(C)n(C)n(-c2ccccc2)c1=O | inactive: 1
39 | S=C1NCCc2ccc(Cl)cc2C1c1ccccc1Cl (stereo unspecified) | inconclusive: 1.54
40 | CCC(=O)Nc1cccc(-c2cc3ccccc3oc2=O)c1 | inconclusive: 1.33
41 | CCN(CC)S(=O)(=O)c1ccc(N/N=C/c2cccnc2)nc1 | inactive: 1.09
42 | CCCC(=O)NC(c1ccccc1OC)c1ccc2cccnc2c1O (stereo unspecified) | inactive: 1.03
43 | NC[C@@H]1O[C@H](C23CC4CC(CC(C4)C2)C3)Cc2c1ccc(O)c2O | inconclusive: 1.3
44 | O=C(NCc1n[nH]c(=S)n1-c1ccc(Cl)c(Cl)c1)c1cccs1 | inactive: 0.98
45 | S=C(Nc1ccc(Oc2ccccc2)cc1)NC1CCCCC1 | inconclusive: 1.28
46 | O=[N+]([O-])c1cc(CN2CCOCC2)c2cccnc2c1O | inconclusive: 1.58

Row | SMILES | fold induction
47 | COc1cc(NC(=O)c2cccs2)c(C(=O)OCC(=O)NCc2ccccc2)cc1OC | inconclusive: 1.16
48 | O=[N+]([O-])c1cc([N+](=O)[O-])c2cccnc2c1O | inconclusive: 1.51
49 | CC(=O)NC(c1ccco1)c1ccc2cccnc2c1O (stereo unspecified) | inactive: 0.91
50 | CN(C)c1ccc(N/C=C/C(=O)C(C)(C)C)cc1 | inconclusive: 1.25
51 | COc1ccc(NC(=O)c2csc3c2CCCCC3)c(OC)c1 | inactive: 1
52 | O=C(O)C(Cc1ccccc1)N1C(=O)/C(=C/c2ccccc2)SC1=S (stereo unspecified) | inactive: 0.93
53 | Cc1nn(-c2ccccn2)c2nc(-c3cccs3)cc(C(=O)NCc3ccco3)c12 | inconclusive: 1.39
54 | O=C(Cn1c(COc2ccccc2)nc2ccccc21)Nc1cc(Cl)cc(Cl)c1 | inactive: 0.92
55 | COc1ccc(CNC(=O)CCS(=O)(=O)Cc2ccc(C)cc2)c(OC)c1 | inactive: 0.98
56 | CCc1nnc(N/N=C/c2ccc(-c3ccc([N+](=O)[O-])cc3)o2)n1N | inconclusive: 1.35
57 | COc1ccc(CCNC(=O)COC(=O)Cc2ccc(OC)cc2)cc1 | inactive: 0.8
58 | CCOC(=O)C1(Cc2cccc(OC)c2)CCN(CC=C(C)C)CC1 | inactive: 1.02
59 | O=C(Nc1cccnc1)c1cccc(NC(=O)c2ccco2)c1 | inconclusive: 1.34
60 | N#C/C(C(=O)N1CCCCC1)=C1\Nc2ccccc2S1 | inactive: 0.81
61 | O=c1cc(O)c2ccc(O)cc2o1 | inconclusive: 1.33
62 | CSc1nc(O)c(/C=C2\C=Nc3ccccc32)[nH]1 | inconclusive: 1.33
63 | Cc1c(C#N)c(O)n(CCO)c(=O)c1N=Nc1ccc(S(N)(=O)=O)cc1 | inconclusive: 1.35
64 | Cc1c(OCc2ccccc2)c(=O)ccn1Cc1ccccc1 | inconclusive: 1.07
65 | O=C(NCCNc1ccc([N+](=O)[O-])cc1)c1ccco1 | inactive: 1.23
66 | O=C(c1cn(-c2ccccc2)nc1-c1ccccc1)n1nnc2ccccc21 | inconclusive: 1.17
67 | COc1ccc(OC)c(N2C(=O)CC(Cc3ccc(C)cc3)C2=O)c1 (stereo unspecified) | inactive: 0.84
68 | COC(=O)c1ccc(-n2c(C)cc(C(=O)CCl)c2C)cc1 | inconclusive: 1.34
69 | O=C1NC(=O)/C(=C\c2ccc(N3CCOCC3)o2)N1 | inactive: 0.97

Row | SMILES | fold induction
70 | CC(C)C(C(=O)O)N1C(=O)/C(=C/C=C/c2ccco2)SC1=S (stereo unspecified) | inconclusive: 1.31
71 | COc1ccc(C2C3=C(CC(C)(C)CC3=O)Nc3cc4c(cc32)OCO4)cc1 (stereo unspecified) | inconclusive: 1.29
72 | CC1CCC(NC(=S)NCCN(C)C)CC1 (stereo unspecified) | inactive: 1
73 | COc1ccc(N=Nc2nc(-c3ccccc3)c(-c3ccccc3)[nH]2)cc1 | inconclusive: 1.34
74 | O=C1c2ccccc2NC(c2ccc(-c3ccc(Br)cc3)o2)N1O (stereo unspecified) | inactive: 0.77
75 | CCn1c(O)c(N=Nc2ccc(Cl)c(C(=O)O)c2)c2ccccc21 | inconclusive: 1.34
76 | Cc1cc(C)cc(NC(=S)N=Nc2c(O)n(C)c3ccc(S(=O)(=O)N4CCOCC4)cc23)c1 | inconclusive: 1.33
77 | Oc1ccc(CN2CCN(c3ccccc3)CC2)c2cccnc12 | inactive: 0.91
78 | Cc1ccc(-c2csc(NC(=O)CSc3nnc4c(n3)[nH]c3ccccc34)n2)cc1 | inconclusive: 1.41
79 | Cc1cc(C(=O)CN2C(=O)NC3(CCCc4ccccc43)C2=O)c(C)n1Cc1ccccc1 (stereo unspecified) | inconclusive: 1.2
80 | CCOC(=O)/C(C#N)=C/c1ccc(OCC(=O)Nc2ccccc2)c(OC)c1 | inconclusive: 1.16
81 | COc1ccc(/C=C2\CCCc3c2nc2ccccc2c3C(=O)O)cc1OC | inconclusive: 1.46
82 | CN1/C(=C/C=C(/C#N)C(N)=O)C(C)(C)c2ccccc21 | inconclusive: 2.55
83 | COc1ccc(S(=O)(=O)N/N=C\c2ccc(OC)c(COc3ccc(C)cc3[N+](=O)[O-])c2)cc1 | inconclusive: 1.15
84 | COc1ccc(/C=N\Nc2ccccc2[N+](=O)[O-])c(C(=O)O)c1OC | inconclusive: 1.34
85 | Cc1ccc(N2C(=O)CN=C2Nc2nc(C)cc(C)n2)cc1 | inconclusive: 1.33
86 | COc1cc(NC(=S)NC(=O)c2ccc(C)cc2C)ccc1NC(=O)c1cccs1 | inconclusive: 1.19
87 | OC[C@H]1OC(Nc2ccc(N=Nc3ccccc3)cc2)[C@@H](O)[C@@H](O)[C@@H]1O (stereo partly specified) | inconclusive: 1.34
88 | COC(=O)[C@H](C)NC(=O)Nc1ccc(OC)cc1OC | inactive: 1.1
89 | Cc1cc(C)nc(SCc2ccc(C(=O)N/N=C/c3ccccn3)cc2)n1 | inactive: 1.01
90 | COc1cc(/C=N\Nc2nc(-c3cccs3)c(NC(C)=O)s2)ccc1O | inconclusive: 1.34
91 | CCOc1ccc(C(=O)NCC(=O)OCc2c(F)cccc2Cl)cc1 | inactive: 1.18
